# In the BET-seq Pho4 binding data (Le et al. 2018):
# The other results are listed elsewhere or left out. These are noisy estimates, calculated here from bound and input reads.
# Biological target: T1, Pho4 (S. cerevisiae) (UniProt P07270)
# T1 sequence: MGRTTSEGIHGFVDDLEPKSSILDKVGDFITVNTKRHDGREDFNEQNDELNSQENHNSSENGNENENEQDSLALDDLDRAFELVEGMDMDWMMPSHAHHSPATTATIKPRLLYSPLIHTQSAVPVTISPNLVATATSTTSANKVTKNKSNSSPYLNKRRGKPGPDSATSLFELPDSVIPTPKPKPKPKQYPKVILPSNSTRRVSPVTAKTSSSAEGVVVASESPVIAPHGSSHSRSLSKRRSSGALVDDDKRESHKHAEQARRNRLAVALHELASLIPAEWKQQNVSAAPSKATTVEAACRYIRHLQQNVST
# Experiment: relative binding free energy (BET-seq); higher = weaker binding
# Conditions: reference: library average
row,Sequence,relative binding free energy
1,AGGATCACGTGAAGGC,0.37 kcal/mol
2,TACGGCACGTGAGGTC,0.17 kcal/mol
3,TAGCGCACGTGTGTAG,-0.08 kcal/mol
4,GGTGGCACGTGAAGGA,0.19 kcal/mol
5,CGTTTCACGTGGGGCA,0.15 kcal/mol
6,ATTGACACGTGGGAGT,-0.2 kcal/mol
7,ATGCTCACGTGGGAGG,0.17 kcal/mol
8,TGAAGCACGTGTTGTT,-0.07 kcal/mol
9,TTTCGCACGTGTGGTT,-0.03 kcal/mol
10,AATGACACGTGTCTGG,0.11 kcal/mol
11,GGGGACACGTGGGTTT,-0.06 kcal/mol
12,TGCTGCACGTGTTGGA,0 kcal/mol
13,ACTATCACGTGGTAGT,0.06 kcal/mol
14,AGTTACACGTGCCTGG,0.13 kcal/mol
15,GTGTACACGTGTTTAT,-0.07 kcal/mol
16,GTAGACACGTGCGTAT,0.05 kcal/mol
17,TATTACACGTGTAGAT,0.33 kcal/mol
18,TGCGTCACGTGTTTAT,0.14 kcal/mol
19,CGGCTCACGTGGTTTG,0.13 kcal/mol
20,GCTAGCACGTGGGGGC,-0.17 kcal/mol
21,AGTGCCACGTGGTGGT,-0.12 kcal/mol
22,AGGCGCACGTGTGATG,-0.14 kcal/mol
23,AATGTCACGTGGGTTT,0.13 kcal/mol

row,Sequence,relative binding free energy
1,GGAGACACGTGGGGCA,-0.19 kcal/mol
2,TATGACACGTGATGCG,0.17 kcal/mol
3,GGCGGCACGTGCTTTG,-0.11 kcal/mol
4,TCGGTCACGTGGTTAT,0.13 kcal/mol
5,GGGGGCACGTGTCTGC,-0.12 kcal/mol
6,TAATTCACGTGTAAAA,0.34 kcal/mol
7,TAGGACACGTGTGCGA,-0.05 kcal/mol
8,GGGTACACGTGGTTGT,0.14 kcal/mol
9,TGCTGCACGTGTGGTT,0.11 kcal/mol
10,GTATACACGTGGTGAG,-0.02 kcal/mol
11,ATGACCACGTGTTTTT,0.04 kcal/mol
12,GTACGCACGTGGAGTG,-0.05 kcal/mol
13,TGAATCACGTGTAGTT,0.28 kcal/mol
14,TGTTGCACGTGTACAT,0 kcal/mol
15,GTGTCCACGTGAGTTT,0.36 kcal/mol
16,TGAGTCACGTGGGCGT,0.07 kcal/mol
17,TAGATCACGTGCTGTA,0.09 kcal/mol
18,TAGATCACGTGTGTAA,0.18 kcal/mol
19,GAGGTCACGTGTTTGA,0.15 kcal/mol
20,AGTGTCACGTGTTGTC,-0.05 kcal/mol
21,ACTAGCACGTGTGTGA,-0.04 kcal/mol
22,CTGGTCACGTGCTGTT,0.11 kcal/mol
23,GCGTGCACGTGTTTAT,-0.04 kcal/mol

row,Sequence,relative binding free energy
1,GCTTGCACGTGTTGGA,0.05 kcal/mol
2,CTTGGCACGTGTCGTA,-0.11 kcal/mol
3,ACGGACACGTGTGGGA,0.01 kcal/mol
4,TATTGCACGTGATCTT,0.02 kcal/mol
5,ATAATCACGTGGGACG,0.07 kcal/mol
6,AAGCGCACGTGGTGTG,-0.17 kcal/mol
7,TGTAGCACGTGTCGCG,-0.14 kcal/mol
8,GTTATCACGTGGTTCG,0.25 kcal/mol
9,TTAAACACGTGATGTT,0.07 kcal/mol
10,ATTAGCACGTGATGTT,0.13 kcal/mol
11,GGAATCACGTGTGTAA,0.25 kcal/mol
12,AGATTCACGTGGTCTG,0.16 kcal/mol
13,AGAGGCACGTGTGCTA,-0.15 kcal/mol
14,CTGTGCACGTGGAGTG,0.04 kcal/mol
15,GGTGTCACGTGAGGAG,0.25 kcal/mol
16,TAGCGCACGTGGTATG,-0.2 kcal/mol
17,TGTGGCACGTGAGATG,0.13 kcal/mol
18,TTAACCACGTGTGAGT,0.04 kcal/mol
19,CGTAGCACGTGTGGTT,-0.08 kcal/mol
20,CTGAACACGTGGTAGT,0.04 kcal/mol
21,TCAGGCACGTGTTGTG,-0.07 kcal/mol
22,GTTCTCACGTGGCTGT,0.19 kcal/mol
23,AATGGCACGTGAGGTC,0.05 kcal/mol

row,Sequence,relative binding free energy
1,GCGGTCACGTGATAGT,0.32 kcal/mol
2,GAGTGCACGTGGGCAG,-0.2 kcal/mol
3,TGGGCCACGTGGTTTG,0.02 kcal/mol
4,TGATGCACGTGGCGCT,-0.09 kcal/mol
5,ATCGGCACGTGCAGTT,-0.03 kcal/mol
6,GACCGCACGTGGGGGG,-0.02 kcal/mol
7,TACATCACGTGGTTTA,0.13 kcal/mol
8,TAGTGCACGTGTAAAG,0.01 kcal/mol
9,GTAGTCACGTGCTTTG,0.09 kcal/mol
10,GTCAGCACGTGAGTAG,0.2 kcal/mol
11,TCGTTCACGTGTCAGT,0.34 kcal/mol
12,GAGACCACGTGGGGGT,-0.14 kcal/mol
13,ATGAACACGTGGTGAG,0.05 kcal/mol
14,CATTACACGTGGTAGG,0.01 kcal/mol
15,GCTGTCACGTGATGTA,0.17 kcal/mol
16,AATCGCACGTGGTGGG,-0.05 kcal/mol
17,TTTTTCACGTGACATG,0.45 kcal/mol
18,TCAGGCACGTGTAGAG,-0.1 kcal/mol
19,GTGTGCACGTGCGGAG,-0.14 kcal/mol
20,TCGTACACGTGAAGGA,0.43 kcal/mol
21,GTAATCACGTGGGACG,-0.02 kcal/mol
22,TTGTCCACGTGGGGGC,-0.06 kcal/mol
23,GTATGCACGTGGGTAC,-0.13 kcal/mol

row,Sequence,relative binding free energy
1,TGTTGCACGTGAAAGT,0.15 kcal/mol
2,GTGTGCACGTGTTGGA,0.07 kcal/mol
3,GTGGTCACGTGCTGGG,0.17 kcal/mol
4,GAAATCACGTGTGGTA,0.25 kcal/mol
5,CTGGCCACGTGTAGGT,0 kcal/mol
6,TAATTCACGTGAAGAG,0.44 kcal/mol
7,GTAATCACGTGTCAGG,0.19 kcal/mol
8,AGGGACACGTGGCGAG,-0.07 kcal/mol
9,TAGTCCACGTGGGTAG,-0.09 kcal/mol
10,TGTGGCACGTGCAAAT,-0.08 kcal/mol
11,AACATCACGTGGGGTT,0.03 kcal/mol
12,GATAACACGTGGCGGG,-0.04 kcal/mol
13,AATAGCACGTGTATTT,-0.06 kcal/mol
14,GGTATCACGTGAGGAA,0.44 kcal/mol
15,CAGTGCACGTGGGGCA,-0.21 kcal/mol
16,GTTAGCACGTGAAGTG,0.14 kcal/mol
17,GACATCACGTGGTTTT,0.29 kcal/mol
18,AACATCACGTGTGTTA,0.19 kcal/mol
19,ATTAACACGTGGGTAG,-0.18 kcal/mol
20,GGTTTCACGTGGGCAG,0.26 kcal/mol
21,AGTGTCACGTGATTAG,0.14 kcal/mol
22,ATAAGCACGTGTTTTA,-0.16 kcal/mol
23,TGCAGCACGTGGGGTT,-0.34 kcal/mol
